# Test results reported in PubChem BioAssay AID1963576 (National Center for Advancing Translational Sciences (NCATS), 2024).
# In all, about 46,000 compounds went through this assay and about 60 (0.1%) were called active. About 3% were inconclusive and are not listed. The call rests on the fitted dose curve; in most records, active means well fitted inhibition curve with a large enough effect; inconclusive means small, poorly fitted or top-dose-only effect; inactive means no such curve, though single readings can be large or run the other way. This is one part of the list.
# Experiment: Primary qHTS assay for Inhibitors of ovarian cancer metastasis using an organotypic tumor microenvironment (TME) model. Further: nearly all actives have a fitted effect of over 65% in size.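 On activity change, negative = inhibition: plate controls were DMSO wells for no effect and tomatine positive control wells for full effect.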
# Settings: SKOV3ip1-GFP adhesion/invasion on 3D omental model, fluorescence; series mostly up to 45.8 µM; activity change, negative = inhibition: at the top concentration
# Method in brief: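 qHTS, 4-pt dose (0.36-46 umol/L); SKOV3ip1-GFP, 1,200 cells/well, no FBS; primary omental fibroblast/mesothelial co-culture 48 h pre-grown; 2 h RT + 16 h 37 C; PBS wash, 4% PFA; GFP count 488/509 nm.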
SMILES,"activity change, negative = inhibition",outcome
Cc1ccc(S(=O)(=O)N2CCN(Cc3nc4ccc(C)cc4o3)CC2)c(C)c1,inactive: -0.987%,–
Cc1nc2ccc(S(=O)(=O)NCC(=O)Nc3ccc(F)cc3F)cc2s1,inactive: 32.4%,–
N[C@@H](Cc1cc(I)c(Oc2cc(I)c(O)c(I)c2)c(I)c1)C(=O)O,inactive: -18.5%,–
CCOC(=O)Cc1ccc(NC(=O)N(Cc2ccc(CC)cc2)Cc2cn[nH]c2-c2ccc(OC)cc2)cc1,inactive: -3.72%,–
COc1cccc(C(=O)Nc2nc(-c3ccc(Br)cc3)ns2)c1,–,inactive
CCOC(=O)Cn1c(=O)n(C2CCCCC2)c2nc(-c3c(F)cccc3Cl)nc(C(N)=O)c21,inactive: -3.06%,–
O=C(Nc1ccccc1Cl)N1CCSc2ccccc21,inactive: 0.806%,–
Cc1cc(C)cc(NC(=O)CSc2nc3nccnc3c(=O)n2CCc2c[nH]c3ccccc23)c1,–,inactive
CC(C)CCn1c(/C=C/c2ccccc2)nc2ccccc21,inactive: -1.57%,–
Cc1ccc(-c2cn3ccc(C)cc3n2)cc1,–,inactive
COc1ccc(Nc2nc(C)nc(N)c2S(=O)(=O)c2ccccc2)cc1,–,inactive
COc1ccccc1C(=O)Nc1sc(Nc2ccccc2)nc1C(N)=O,inactive: 7.31%,–
O=C(c1ccc2c(c1)N(Cc1ccccc1)C(=O)c1ccccc1S2(=O)=O)N1CCN(Cc2ccccc2)CC1,inactive: 9.18%,–
Cc1ccc(NC(=O)c2cnc3sc(N4CCOCC4)nn3c2=O)cc1N(C)C,inactive: -1.82%,–
Cc1cccc(NC(=O)Cn2c(=O)n(CCCCCC(=O)NCc3ccc4c(c3)OCO4)c(=O)c3sccc32)c1,inactive: 13.3%,–
COC(=O)c1scc(-c2ccc(C)cc2)c1S(=O)(=O)Nc1cc(C)ccc1OC,inactive: -2.09%,–
COc1ccc(OC)c(NS(=O)(=O)c2ccc(N3CCCCS3(=O)=O)cc2)c1,inactive: 2.65%,–
O=C(O)C(O)Cc1ccc(O)c(O)c1 (stereo not drawn),inactive: -23.9%,–
COc1cccc(N2CC(NC(=O)c3cc(Cl)ccc3OC)CC2=O)c1 (stereo not drawn),inactive: 11.9%,–
Cc1cc(C)c2c(NC(=O)c3ccccc3)c(C(=O)Nc3ccc(F)cc3)sc2n1,–,inactive
Cc1ccc(C)c(N2CCN(CCCNC(=O)c3ccc4nc(CCc5ccccc5)oc4c3)CC2)c1,–,inactive
CCCNC(=O)C1CCC(Cn2c(=O)c3sccc3n(CC(=O)NCc3cccc(OC)c3OC)c2=O)CC1 (stereo not drawn),–,inactive
CCOc1ccc(N2CC(NC(=O)C3CCCC3)CC2=O)cc1 (stereo not drawn),inactive: 5.84%,–
COc1ccc(NC(=O)c2ccco2)cc1NC(=O)c1cc(OC)c(OC)c(OC)c1,–,inactive
Cc1cc(-n2ccnc(NCCc3ccc(S(N)(=O)=O)cc3)c2=O)ccc1Br,inactive: -0.75%,–

SMILES,"activity change, negative = inhibition",outcome
COc1ccc(-c2onc(C)c2C)cc1S(=O)(=O)N(C)Cc1ccccc1,inactive: -8.59%,–
N#Cc1c(C(F)(F)F)cc(-c2cccs2)nc1SCC(=O)Nc1cccc(Cl)c1,inactive: -13.6%,–
COc1ccc(C(=O)c2sc(Nc3ccccc3)nc2N)cc1,inactive: 0.193%,–
CC(=O)c1cccc(NC(=O)CN(c2cc(C)cc(C)c2)S(=O)(=O)c2c(C)noc2C)c1,–,inactive
CCOc1ccccc1C(=O)N(Cc1sccc1C)C1CCS(=O)(=O)C1 (stereo not drawn),inactive: 3.66%,–
COc1ccc(-c2cc(C(F)(F)F)nc(SCC(=O)NCCc3ccccc3)n2)cc1,–,inactive
Cc1ccc(NC(=O)Cn2cc(S(=O)(=O)Cc3ccc(F)cc3)c3ccccc32)cc1Cl,inactive: 1.69%,–
Cc1c(-c2ccccc2)nc2c(Cl)cccc2c1C(=O)OCC(=O)c1ccc(F)cc1,inactive: 8.86%,–
COc1cc(OC)c(N(C)C(=O)c2c(C)oc3ncn(CC(C)C)c(=O)c23)cc1Cl,inactive: 5.94%,–
CCOC(=O)CSc1nc2cc3c(cc2c(=O)n1Cc1ccc(C(=O)NCCc2ccc(OC)c(OC)c2)cc1)OCO3,inactive: -7.72%,–
O=C(Nc1ccccc1)c1nc[nH]c1C(=O)O,–,inactive
Cc1cc(C)c2c(CC(=O)N(Cc3ccc(Cl)cc3)Cc3ccco3)coc2c1,inactive: -32.7%,–
O=C(C1CCN(S(=O)(=O)c2ccc(Br)s2)CC1)N1CCN(c2cccc(C(F)(F)F)c2)CC1,inactive: -20.1%,–
O=C(CSCc1cnn(-c2ccccc2)c1-n1cccc1)NCc1cccc(Cl)c1,–,inactive
CCCSc1ncc(Cl)c(C(=O)Nc2sc3c(c2C(=O)OC)CCCC3)n1,inactive: 5.71%,–
N#Cc1c(-n2ncnc2-c2ccc(F)cc2)sc2c1CCCCC2,inactive: -4.16%,–
COc1ccc(/C=C\c2onc(C)c2S(=O)(=O)N2CCC(C(=O)Nc3cccc(OC)c3)CC2)cc1,–,inactive
CCOC(=O)c1c(C)[nH]c(C)c1S(=O)(=O)N(C)CC(=O)Nc1ccc(CC)cc1,–,inactive
Cc1ccc(CNC(=O)c2c(C)oc3ncnc(N4CCOCC4)c23)cc1,–,inactive
Cc1ccc(-n2nc(C)c(C(=O)O)c2-n2cccc2)cc1,inactive: 6.3%,–
COc1ccc(CNC(=O)c2cc3ccccn3n2)cc1OC,inactive: -6.23%,–
CC1=C(C(=O)N2CCN(c3ccccc3)CC2)C2(CCCCC2)OC1=O,–,inactive
CCC(C)NC(=O)CCC(=O)N1Cc2ccccc2Oc2ncccc21 (stereo not drawn),inactive: -5.24%,–
COc1cc(NC(=O)Cn2c(=O)ccc3cc(S(=O)(=O)N4CCCC4)ccc32)cc(OC)c1,–,inactive
CC(C)(C)NC(=O)c1oc2ccccc2c1NC(=O)c1ccccc1F,inactive: 13.8%,–

SMILES,"activity change, negative = inhibition",outcome
Cc1ccc(S(=O)(=O)Nc2ccc3nc(-c4ccc(F)cc4)oc3c2)cc1,inactive: -26.8%,–
CCc1ccc(-n2c(=O)c3c4c(sc3n(CC(=O)c3ccc(Br)cc3)c2=O)CCC4)cc1,inactive: 11.1%,–
CC(C)(C)[C@H](NC(=O)c1ccc(N)c(Cl)c1)C(=O)N1CCC[C@@H]1C(=O)N[C@H](C#N)CC(=O)O,inactive: 12.1% [at 3.51 µM],–
O=C(NCc1ccccc1)c1cc2ccc3cccnc3c2[nH]1,inactive: 1.94%,–
O=C(NCC1(c2ccccc2)CCCC1)C(=O)Nc1cccc(Br)c1,–,inactive
Cc1ccccc1CCNC(=O)C1CCN(S(=O)(=O)c2ccc3c(ccn3C)c2)CC1,inactive: 8.88%,–
Cc1cccc(C)c1NC(=O)Cn1nnc(C(=O)NCc2ccc(F)cc2)c1N,inactive: 5.41%,–
CCCN(CCC)C(=O)C(Cc1ccccc1)NS(=O)(=O)c1ccc2c(c1)c(=O)n(C)c(=O)n2C (stereo not drawn),inactive: 0.922%,–
Cc1oc2c(C)c3oc(=O)c(CC(=O)N4CCCCC4)c(C)c3cc2c1C,inactive: -7.36%,–
CCc1nn(C(C)C(=O)N2CCN(c3ccccc3)CC2)c(=O)c2cc3occc3n12 (stereo not drawn),–,inactive
COc1cc(Nc2ncc3c(n2)CCN(Cc2cccc(C)c2)C3)cc(OC)c1,inactive: -6.49%,–
Cn1c(=O)c2c(nc(Oc3ccccc3Cl)n2Cc2ccc(C#N)cc2)n(C)c1=O,inactive: -4.31%,–
Cn1nnnc1SCCCNCc1cccc(OCc2ccc(F)cc2)c1,inactive: -15.9%,–
Cc1cccc(N2CCN(C(=O)C3CCN(c4ncnc5c4nc4n5CCCCC4)CC3)CC2C)c1 (stereo not drawn),inactive: -18%,–
COc1ccc(S(=O)(=O)c2c(O)c3ccc(C(=O)Nc4ccccc4)cc3[nH]c2=O)cc1,inactive: -0.082%,–
Cc1nn2c(=O)cc(COC(=O)c3cccs3)nc2s1,–,inactive
CCc1ccccc1NC(=O)Cn1nc(C(F)(F)F)c2c1CCC2,inactive: -4.13%,–
Cc1cc(C)c2c(CC(=O)Nc3ccccc3C(F)(F)F)coc2c1,inactive: -12%,–
CSc1ccc(CCNC(=O)c2ccc3c(Cl)c4c(nc3c2)CCCC4)cc1,–,inactive
CCCSc1ncc(Cl)c(C(=O)Nc2nc3ccc(C)cc3s2)n1,inactive: -2.88%,–
O=C(CCn1c(=O)c2ccccc2n(Cc2cccc(Cl)c2)c1=O)NCCc1ccccc1,inactive: -0.919%,–
CCOC(=O)c1ccccc1NC(=O)Cn1c(=O)n(Cc2nc(C)no2)c(=O)c2ccccc21,inactive: -3.35%,–
CN(c1ccccc1C(=O)O)S(=O)(=O)c1ccc2[nH]c(=O)oc2c1,inactive: 10.8%,–
CN(C)c1ccc(C(CNS(=O)(=O)c2ccc(Cl)cc2)N2CCOCC2)cc1 (stereo not drawn),inactive: 4.18%,–
Cc1ccc(Cl)cc1NC(=O)C1CCCN(c2cnccn2)C1 (stereo not drawn),–,inactive

SMILES,"activity change, negative = inhibition",outcome
O=C(NCc1ccccc1)C(=O)NCC(c1ccco1)S(=O)(=O)c1cccs1 (stereo not drawn),inactive: -0.494%,–
Cc1cccc(NC(=O)C2CCN(c3nnc(C)c4c(C)n(-c5ccccc5)nc34)CC2)c1C,inactive: 2.5%,–
CCc1nn(CC(=O)Nc2cccc(C(C)=O)c2)c(=O)c2cc3sccc3n12,inactive: -2.12%,–
CCOC(=O)c1c(NC(=O)C2c3ccccc3Oc3ccccc32)sc(C)c1CC,inactive: 0.74%,–
Oc1ccc(NCc2ccccc2OCc2ccc(Cl)cc2)cc1,–,inactive
COc1cc(Nc2nc3c(S(=O)(=O)c4ccc(C)c(C)c4)nnn3c3ccsc23)cc(OC)c1,inactive: -1.39%,–
Cc1ccc(OCC(=O)Nc2nnc(S(=O)(=O)N3CCCCCC3)s2)cc1,inactive: 10.6%,–
O=C(NCc1ccc(F)cc1)C1(c2cccs2)CCOCC1,inactive: 0.326%,–
CC(C)(C)C1CCc2nc(NC(=O)Cc3ccccc3)sc2C1 (stereo not drawn),–,inactive
COC(=O)c1ccccc1NC(=O)N1CCC(N2CCN(Cc3ccc(F)cc3)C(=O)C2=O)CC1,inactive: 3.95%,–
CCn1c(=O)cc(OCC(=O)N(C)c2cc(Cl)ccc2C)c2ccccc21,inactive: 6.77%,–
O=C1CN(C(=O)COc2ccc(Cl)cc2Cl)C(c2ccccc2)c2cc(F)ccc2N1 (stereo not drawn),inactive: -29.3%,–
CN(C)CCNC(=O)c1ccc(-c2nn(C)c(=O)c3ccccc23)cc1,inactive: 16.4%,–
COc1ccccc1N1C(=O)N(CC(=O)C(C)(C)C)c2ccccc2S1(=O)=O,–,inactive
CSc1ccc(-c2nc3cccc(C)n3c2Nc2ccc(Cl)cc2)cc1,inactive: 4.08%,–
Cc1ccc(Cn2cnc3nc4c(cc3c2=O)CC(C)CC4)cc1 (stereo not drawn),inactive: 9.11%,–
COc1cccc(C(=O)Nc2nnc(S(=O)(=O)N3CCCC3)s2)c1,inactive: 12%,–
CC(C)c1ccc(S(=O)(=O)c2cnc(SCC(=O)Nc3ccc4c(c3)OCCO4)[nH]c2=O)cc1,inactive: 2.4%,–
Cc1cccc(C(=O)NNc2ncnc3c2cnn3-c2ccc(C)cc2C)c1,inactive: -2.3%,–
O=C(O)c1ccc(NC(=O)c2cc(S(=O)(=O)N3CCCCC3)c(Cl)cc2Cl)cc1,inactive: -10.1%,–
CCOc1ccccc1CNC(=O)CCCn1ccc2cc(S(=O)(=O)N3CCCC3)ccc21,inactive: 3.33%,–
Nc1cccc2c1C(=O)N(C1CCC(=O)NC1=O)C2=O (stereo not drawn),inactive: -7.83%,–
CCOc1ccc(CCNC(=O)c2nn(C)c3c2CSc2ccccc2-3)cc1,inactive: 4.16%,–
